# Reference: PubChem BioAssay AID504832 (National Center for Advancing Translational Sciences (NCATS), 2011)
# Screen size: about 310,000 compounds; about 18,000 (5.8%) were called active. This list was built around the results that the source calls inconclusive (neither active nor inactive); the mix of calls is not that of the screen. The call rests on the fitted dose curve; in most records, active means well fitted inhibition curve with a large enough effect; inconclusive means small, poorly fitted or top-dose-only effect, or another doubt; inactive means no such curve, though single readings can be large or run the other way. No potency is given beside an inconclusive call; the fits are too rough.
# Assay: Primary qHTS for delayed death inhibitors of the malarial parasite plastid, 48 hour incubation
# Conditions: P. falciparum luciferase growth in erythrocytes; series mostly up to 28.7 µM; activity change, negative = inhibition: at the top concentration
# How it was run: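 Luminescence readout; reporter = integrated firefly luciferase in P. falciparum. RBC culture at 2% hematocrit, 0.1% parasitemia final, 37 C/5% CO2; decreased signal taken as growth inhibition.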
# On the % scale 0 is the no-effect control and ±100 the full control effect; potency means the concentration at half of the fitted maximal effect; tags describe the fitted curve by direction and shape.
SMILES,"activity change, negative = inhibition",Potency
CC(Oc1ccc(Br)cc1)C(=O)NC1CCN(Cc2ccccc2)CC1 (stereo not drawn),inactive: -8.59%,–
CCOc1ccc(-n2c(-c3ccc(OC)cc3)c[n+]3c2CCCCC3)cc1,–,active: 0.738 µM
O=C(c1ccc(C(F)(F)F)cc1)c1c[nH]c(C(=O)NCCCn2ccnc2)c1,–,"inconclusive [inhibitor, single point]"
C[n+]1ccccc1/C=C/c1cc(Br)ccc1O,–,active: 0.738 µM
CC(NC(=O)CCc1nnc(-c2ccc(-c3ccccc3)cc2)o1)c1nccs1 (stereo not drawn),inactive: -15.8%,–
CCN(CC)S(=O)(=O)c1ccc(C(=O)N2CCN(C3=NS(=O)(=O)c4ccccc43)CC2)cc1,–,"inconclusive [inhibitor, partial curve, poor fit]"
Cc1ccc2nc3c(cc(C(=O)NC4CCCCC4)c(=N)n3C3CCCCC3)c(=O)n2c1,–,"inconclusive [inhibitor, single point]"
Cc1ccc(NC(=O)CC2C(=O)NC3CCCCC3N2C(=O)c2ccc(F)cc2)cc1C (stereo not drawn),–,"inconclusive [inhibitor, partial curve]"
CCOc1ccc(NS(=O)(=O)c2c(C(=O)N3CCCCCC3)c(C)n(C)c2C)cc1,inactive: 0%,–
Cc1cc(N2CCN(C)CC2)nc2ccc(NC(=S)N3CCN(c4ccc(Cl)cc4)CC3)cc12,–,active: 13.1 µM
Cc1ccc(OCC(=O)Nc2cccc(-c3nnc(-c4ccccc4)o3)c2)cc1,inactive: -77%,–
C=CCN(c1ccc(C(=O)Nc2ccc3c(c2)n(C)c(=O)n3C)cc1)S(C)(=O)=O,–,"inconclusive [inhibitor, single point]"
CN(C)S(=O)(=O)c1cccc(NC(=O)c2ccc(Sc3nncn3C)c([N+](=O)[O-])c2)c1,–,"inconclusive [inhibitor, partial curve, poor fit]"
Cc1sc2nc(C3CC3)nc(SCC(=O)N3CCc4ccccc4C3)c2c1C,–,"inconclusive [inhibitor, single point]"
CC(C)(C)OC(=O)N1CCCN(C(=O)Nc2ccccc2)CC1,inactive: -5.14%,–
COc1ccc(C(C(=O)NC2CCCC2)N(C(=O)c2snc(C(N)=O)c2N)C2CCCC2)cc1OC (stereo not drawn),–,"inconclusive [inhibitor, single point]"
CCOC(=O)N1CCN(C(=O)c2ccc(Cn3c(=S)[nH]c4cc5c(cc4c3=O)OCO5)cc2)CC1,–,active: 13.1 µM
NOCC(=O)O,inactive: 10.5%,–
N#C/C(=C/c1ccccc1[N+](=O)[O-])C(=O)NCc1ccco1,inactive: -0.627%,–
Cc1ccc(-c2noc(-c3ccoc3C)n2)cc1,inactive: 156%,–
O=C1C(c2ccccc2)=[N+]([O-])c2ccccc21,–,active: 0.657 µM
Cc1ccc(S(=O)(=O)NCc2ccc(N3CCN(C(=O)OC(C)(C)C)CC3)cc2)cc1,–,active: 13.1 µM
Cc1cc(C)c(NC(=S)NCCCSC2CCCCC2)c(C)c1,–,"inconclusive [inhibitor, partial curve]"
CCCCN1CC(=O)N2[C@H]3c4ccc(OC)cc4OC[C@@H]3[C@H](c3ccccc3)[C@]2(C)C1=O,–,active: 2.08 µM

SMILES,"activity change, negative = inhibition",Potency
CCn1c(COc2cccc(C)c2)nnc1SCC(=O)NC1CCCC1,inactive: -26.2%,–
COC(=O)[C@@H]1[C@@H](C(=O)OC)C2(c3ccccc3-c3ccccc32)N(c2ccc(Cl)cc2)N1C#N,–,"inconclusive [inhibitor, single point]"
CCN(CC)CCCN=Cc1c(O)n(-c2cccc(C)c2)c(=O)c2ccccc12,inactive: -6.5%,–
COC(=O)c1ccccc1NC(=O)/C=C/c1ccco1,–,"inconclusive [inhibitor, single point]"
CCOC(=O)C1CCCN(C(=O)c2ccc3c(c2)N(Cc2ccccc2)C(=O)c2ccccc2S3=O)C1 (stereo not drawn),–,"inconclusive [inhibitor, partial curve, poor fit]"
Cc1ccc2nc3c(cc2c1)c(NC(=O)c1ccccn1)nn3CC(C)C,–,"inconclusive [inhibitor, full curve, poor fit]"
Cc1ccccc1OCC(=O)N/N=C/c1ccc(N2CCOCC2)o1,inactive: -1.11%,–
Cc1ccc(S(=O)(=O)N2CCCCC2)cc1NC(=O)CCc1nc2ccccc2c(=O)[nH]1,–,"inconclusive [inhibitor, single point]"
O=C(NNC(=O)c1ccc(Oc2ccc(C3SCCS3)cc2)o1)c1ccc(Cl)cc1,inactive: 3.74%,–
Cc1[nH]c(=O)[nH]c(=O)c1S(=O)(=O)N1CCCC(C(=O)NCc2ccc3c(c2)OCO3)C1 (stereo not drawn),–,"inconclusive [inhibitor, single point]"
CCN1CCN(c2cc(C)c3cc(NC(=S)N4CC(C)CC(C)C4)ccc3n2)CC1 (stereo not drawn),–,"inconclusive [inhibitor, single point]"
Cc1ccc(-n2sc3ccccc3c2=O)cc1,–,active: 4.15 µM
O=C(NCC#CCOCc1ccccc1)c1ccccc1,inactive: -21.2%,–
CCCCC1=CC2=CC(=O)C(C)(OC(=O)CCc3ccccc3)C(=O)C2=CO1 (stereo not drawn),inactive: 32.8%,–
COCCN(Cc1ccccc1)C(=O)Cc1ccc(S(=O)(=O)N2CCOCC2)s1,–,active: 10.4 µM
CCn1ccnc1CN1CCc2c([nH]c3ccccc23)C1C(C)(C)C (stereo not drawn),–,active: 4.65 µM
COc1ccc(NC(=S)N(CCCN2CCCC(C)C2)Cc2cccs2)cc1 (stereo not drawn),–,"inconclusive [inhibitor, partial curve, poor fit]"
CCN(/N=C/c1ccc(Cl)cc1)c1cc(=O)n(C)c(=O)[nH]1,inactive: 1.47%,–
CCOc1ccccc1NC(=O)COc1coc(CN2CCc3ccccc32)cc1=O,–,active: 11.7 µM
CC1CCC(NC(=O)c2cc(C3CC3)nn2-c2ccccc2)CC1 (stereo not drawn),–,"inconclusive [inhibitor, single point]"
CC1(C)CSC(=NCc2ccccc2)N1,inactive: 17.8%,–
CCOC(=O)C1=C(C)NC(SCC(=O)Nc2nc(C)cs2)=C(C#N)C1c1cccs1 (stereo not drawn),–,active: 2.08 µM
Cc1ccc(S(=O)(=O)N(C)c2ccc(OCC(=O)N3CCCC(C(F)(F)F)C3)cc2)cc1 (stereo not drawn),–,"inconclusive [inhibitor, single point]"
C/C(N)=C(/C#N)C(=O)COC(=O)Cc1coc2ccc3ccccc3c12,inactive: -18.5%,–
